Measured values: PMC5021521, “Coordinated recruitment of Spir actin nucleators and myosin V motors to Rab11 vesicle membranes” (eLife, 2016)
No constants are given. Whether binding was seen depends on the method and setting. For part of these data: Binding seen in cells or lysates may run through a third protein. Some results given as binding are weak or reduced against the parent protein; the word gives no strength. For part of these data: Tags and fused reporters may be left off the sequences shown. One block for each molecule: values may come before it.

The chains behind the UniProt entries cited, without tags or fusion partners. Where a name states a change or a piece, a line headed by the entry shows the natural chain unless it says otherwise. A line that says so, or that is headed by a name, gives the form on record, which may keep a tag or linker. Residues count along the entry.
UniProt Q08AE8, residues 2-756: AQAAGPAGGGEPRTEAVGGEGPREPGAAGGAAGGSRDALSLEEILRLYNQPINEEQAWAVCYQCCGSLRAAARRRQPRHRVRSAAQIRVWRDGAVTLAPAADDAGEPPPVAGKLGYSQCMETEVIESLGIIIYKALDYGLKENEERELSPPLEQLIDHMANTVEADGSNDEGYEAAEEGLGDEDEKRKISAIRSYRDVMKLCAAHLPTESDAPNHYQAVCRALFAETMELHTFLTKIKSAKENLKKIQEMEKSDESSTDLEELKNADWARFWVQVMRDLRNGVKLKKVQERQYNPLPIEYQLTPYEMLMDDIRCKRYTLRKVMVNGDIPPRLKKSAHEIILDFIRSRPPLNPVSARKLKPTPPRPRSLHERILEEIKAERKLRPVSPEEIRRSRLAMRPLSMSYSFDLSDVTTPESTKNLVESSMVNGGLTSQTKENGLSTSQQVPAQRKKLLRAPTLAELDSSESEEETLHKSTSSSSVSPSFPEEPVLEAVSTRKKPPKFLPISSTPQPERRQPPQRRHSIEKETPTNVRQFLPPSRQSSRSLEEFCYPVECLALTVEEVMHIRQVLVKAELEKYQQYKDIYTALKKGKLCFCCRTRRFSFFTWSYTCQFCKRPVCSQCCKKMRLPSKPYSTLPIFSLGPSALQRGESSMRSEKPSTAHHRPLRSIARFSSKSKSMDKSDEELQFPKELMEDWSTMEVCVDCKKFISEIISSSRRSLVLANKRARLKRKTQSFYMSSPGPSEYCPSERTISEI
UniProt Q9Y4I1, residues 1461-1853: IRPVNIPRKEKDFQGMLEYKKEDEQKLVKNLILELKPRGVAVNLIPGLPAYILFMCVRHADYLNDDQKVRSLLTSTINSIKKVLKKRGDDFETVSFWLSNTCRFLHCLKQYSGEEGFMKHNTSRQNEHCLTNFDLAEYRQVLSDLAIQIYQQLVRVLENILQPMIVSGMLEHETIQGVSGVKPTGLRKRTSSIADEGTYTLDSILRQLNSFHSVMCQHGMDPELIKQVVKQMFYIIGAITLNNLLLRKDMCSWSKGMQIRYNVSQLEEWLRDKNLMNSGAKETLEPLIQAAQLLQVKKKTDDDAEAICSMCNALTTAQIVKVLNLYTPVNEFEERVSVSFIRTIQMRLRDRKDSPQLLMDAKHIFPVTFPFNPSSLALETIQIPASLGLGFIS
Rab11a (crystallised with MyoVa-GTD) (P62491, residues 1-177): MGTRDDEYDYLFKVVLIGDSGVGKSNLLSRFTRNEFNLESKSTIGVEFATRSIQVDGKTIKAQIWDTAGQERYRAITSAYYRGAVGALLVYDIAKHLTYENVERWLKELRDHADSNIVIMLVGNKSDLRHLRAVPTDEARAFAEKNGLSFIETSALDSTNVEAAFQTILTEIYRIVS
His6-Rab11a-Q70L-1-173 (P62491, form named): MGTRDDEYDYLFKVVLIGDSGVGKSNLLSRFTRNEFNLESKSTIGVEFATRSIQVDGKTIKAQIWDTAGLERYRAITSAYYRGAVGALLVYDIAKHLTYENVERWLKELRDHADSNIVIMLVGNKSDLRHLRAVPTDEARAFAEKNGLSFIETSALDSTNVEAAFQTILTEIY
UniProt Q9ULV0, residues 1467-1848: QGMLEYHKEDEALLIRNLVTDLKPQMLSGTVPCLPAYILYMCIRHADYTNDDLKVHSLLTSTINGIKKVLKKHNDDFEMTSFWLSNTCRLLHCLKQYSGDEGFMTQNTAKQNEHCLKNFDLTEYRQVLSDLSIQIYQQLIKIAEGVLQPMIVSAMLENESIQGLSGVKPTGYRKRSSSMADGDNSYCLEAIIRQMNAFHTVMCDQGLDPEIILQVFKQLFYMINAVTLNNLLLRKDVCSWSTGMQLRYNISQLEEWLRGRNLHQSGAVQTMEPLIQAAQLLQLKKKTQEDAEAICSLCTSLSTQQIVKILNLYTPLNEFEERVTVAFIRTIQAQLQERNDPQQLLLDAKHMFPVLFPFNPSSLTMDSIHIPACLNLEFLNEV

Columns and labels:
[1] = biological target: T1, Myc-Spir-2-411-714 (human) (UniProt Q8WWL2); test: co-IP; HEK293 cells co-transfected with Myc-tagged Spir and GFP-tagged MyoV fragments; lysates precipitated with anti-c-Myc (9E10) and Protein G-Agarose; 25 mM Tris-HCl pH 7.4, 150 mM NaCl, 5 mM MgCl2, 10% glycerol, 0.1% NP-40; immunoblot
T1 sequence: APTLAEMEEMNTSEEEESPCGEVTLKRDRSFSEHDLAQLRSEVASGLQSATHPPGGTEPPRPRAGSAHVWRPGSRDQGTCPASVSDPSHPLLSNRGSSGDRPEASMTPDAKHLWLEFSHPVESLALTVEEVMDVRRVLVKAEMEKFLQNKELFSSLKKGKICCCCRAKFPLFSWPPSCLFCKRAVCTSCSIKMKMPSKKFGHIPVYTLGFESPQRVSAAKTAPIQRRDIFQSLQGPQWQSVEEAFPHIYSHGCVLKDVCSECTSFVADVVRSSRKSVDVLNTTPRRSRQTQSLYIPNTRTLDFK

[2] = biological target: T2, Myc-Spir-2-2-423 (human) (UniProt Q8WWL2); test: as above
T2 sequence: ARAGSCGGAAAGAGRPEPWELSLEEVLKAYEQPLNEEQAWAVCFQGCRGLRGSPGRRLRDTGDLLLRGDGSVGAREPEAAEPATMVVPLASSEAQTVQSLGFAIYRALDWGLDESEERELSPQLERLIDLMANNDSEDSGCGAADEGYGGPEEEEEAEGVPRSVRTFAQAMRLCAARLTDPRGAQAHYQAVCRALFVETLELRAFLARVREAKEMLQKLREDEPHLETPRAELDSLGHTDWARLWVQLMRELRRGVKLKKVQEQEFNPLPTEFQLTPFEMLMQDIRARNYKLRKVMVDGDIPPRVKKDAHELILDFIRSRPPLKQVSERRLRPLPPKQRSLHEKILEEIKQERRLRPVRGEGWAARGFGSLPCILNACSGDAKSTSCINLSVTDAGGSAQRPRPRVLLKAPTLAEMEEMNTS

[3] = biological target: T3, Myc-Spir-2-SB-FYVE (human) (UniProt Q8WWL2); test: as above
T3 sequence: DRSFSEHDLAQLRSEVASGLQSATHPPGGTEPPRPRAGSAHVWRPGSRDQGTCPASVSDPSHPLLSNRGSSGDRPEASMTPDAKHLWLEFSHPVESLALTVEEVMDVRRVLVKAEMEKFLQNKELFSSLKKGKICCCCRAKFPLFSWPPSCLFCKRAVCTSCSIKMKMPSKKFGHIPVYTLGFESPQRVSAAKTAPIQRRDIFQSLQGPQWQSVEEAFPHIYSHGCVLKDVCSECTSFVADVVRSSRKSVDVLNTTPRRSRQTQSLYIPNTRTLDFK

[4] = biological target: T4, Myc-Spir-2 full-length (human) (UniProt Q8WWL2); test: as above
T4 sequence: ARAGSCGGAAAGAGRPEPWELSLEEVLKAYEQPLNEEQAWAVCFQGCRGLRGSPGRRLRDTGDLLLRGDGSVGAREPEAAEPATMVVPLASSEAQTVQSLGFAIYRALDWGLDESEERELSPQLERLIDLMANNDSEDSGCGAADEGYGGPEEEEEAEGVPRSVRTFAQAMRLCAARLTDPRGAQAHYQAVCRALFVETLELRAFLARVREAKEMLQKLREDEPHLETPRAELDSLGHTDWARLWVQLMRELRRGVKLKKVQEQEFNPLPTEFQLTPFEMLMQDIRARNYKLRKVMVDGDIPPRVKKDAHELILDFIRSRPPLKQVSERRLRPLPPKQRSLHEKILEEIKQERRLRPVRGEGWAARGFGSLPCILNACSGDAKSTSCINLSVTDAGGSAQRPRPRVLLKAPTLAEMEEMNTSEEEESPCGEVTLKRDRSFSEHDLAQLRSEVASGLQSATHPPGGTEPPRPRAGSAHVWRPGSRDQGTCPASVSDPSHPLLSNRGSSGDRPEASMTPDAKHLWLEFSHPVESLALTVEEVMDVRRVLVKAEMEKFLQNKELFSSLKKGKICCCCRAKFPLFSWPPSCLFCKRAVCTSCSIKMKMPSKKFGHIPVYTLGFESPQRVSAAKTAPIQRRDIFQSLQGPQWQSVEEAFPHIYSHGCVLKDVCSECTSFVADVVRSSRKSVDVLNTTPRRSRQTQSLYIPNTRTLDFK

[5] = biological target: T5, Myc-Spir-2-2-410 (human) (UniProt Q8WWL2); test: as above
T5 sequence: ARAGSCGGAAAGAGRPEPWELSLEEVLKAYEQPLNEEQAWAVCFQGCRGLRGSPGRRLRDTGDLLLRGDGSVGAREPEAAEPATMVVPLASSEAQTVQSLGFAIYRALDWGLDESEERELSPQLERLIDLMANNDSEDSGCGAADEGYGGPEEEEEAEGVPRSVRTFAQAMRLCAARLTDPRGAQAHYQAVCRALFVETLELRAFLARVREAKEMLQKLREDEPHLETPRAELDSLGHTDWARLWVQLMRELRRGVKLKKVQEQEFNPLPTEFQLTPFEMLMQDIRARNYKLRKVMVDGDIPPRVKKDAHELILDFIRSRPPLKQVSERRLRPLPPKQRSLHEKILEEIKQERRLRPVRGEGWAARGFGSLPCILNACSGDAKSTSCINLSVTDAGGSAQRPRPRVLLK

[6] = biological target: Myc-Spir-1 full-length (human) (UniProt Q08AE8); test: as above
[7] = biological target: T6, Myc-Spir-2-398-714 (human) (UniProt Q8WWL2); test: as above
T6 sequence: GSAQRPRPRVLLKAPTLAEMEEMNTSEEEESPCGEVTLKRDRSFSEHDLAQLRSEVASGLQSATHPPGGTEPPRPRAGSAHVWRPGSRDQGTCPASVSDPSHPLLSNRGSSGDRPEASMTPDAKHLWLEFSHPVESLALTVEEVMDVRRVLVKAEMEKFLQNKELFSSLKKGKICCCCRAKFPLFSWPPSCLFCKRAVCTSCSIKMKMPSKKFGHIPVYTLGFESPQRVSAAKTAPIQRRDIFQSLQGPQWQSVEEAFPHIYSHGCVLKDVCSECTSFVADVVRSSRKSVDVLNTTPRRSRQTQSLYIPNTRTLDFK

[8] = biological target: MyoVa-GTD (human, aa 1461-1853) (human) (UniProt Q9Y4I1); test: SEC; analytical gel filtration, Superdex 200 10/30 Increase; 50 mM Tris pH 8.0, 150 mM NaCl, 2 mM MgCl2, 2 mM TCEP; His6-Rab11a-1-173-Q70L 6 mg/ml, MyoVa-GTD 5 mg/ml, His6-mCherry-Spir-2-linker 6 mg/ml, alone, pairwise or all three; fractions on SDS-PAGE; both purified
[9] = biological target: Rab11-wt(GDP), His6-tagged (human) (UniProt P62491); test: SPR; Rab11a-Q70L(GTP) or Rab11-wt(GDP) captured through His6-tag on NTA sensorchip (200-250 RU), Biacore 2000; MyoVa-GTD or MyoVb-GTD 10 nM-5 uM injected; 25°C; 50 mM Hepes pH 7.5, 100 mM NaCl, 2 mM MgCl2, 1 mM TCEP; steady state; both purified
[10] = biological target: T7, Fluorescein-Spir-2-GTBM peptide (human); test: fluorescence polarisation; fluorescence anisotropy; 1 uM fluorescein-Spir-2-401-427 titrated with MyoVa-GTD or MyoVb-GTD (50 nM-5 uM); 25°C; 100 mM Tris-HCl pH 8.0, 150 mM NaCl, 2 mM MgCl2, 2 mM TCEP, 5% glycerol; both purified
T7 sequence (peptide, 5-FAM-Ahx on the N-terminus (fluorescein)): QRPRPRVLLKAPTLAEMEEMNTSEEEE

[11] = biological target: T8, GST-Spir-2-GTBM-SB-FYVE (human) (UniProt Q8WWL2); test: pull-down; 65 ug GST-Spir-2-GTBM-SB-FYVE on beads, 35 ug Rab11a-Q70L with or without 40 ug MyoVa-GTD, 2 hr; immunoblot with anti-myosin Va and anti-Rab11; both purified
T8 sequence: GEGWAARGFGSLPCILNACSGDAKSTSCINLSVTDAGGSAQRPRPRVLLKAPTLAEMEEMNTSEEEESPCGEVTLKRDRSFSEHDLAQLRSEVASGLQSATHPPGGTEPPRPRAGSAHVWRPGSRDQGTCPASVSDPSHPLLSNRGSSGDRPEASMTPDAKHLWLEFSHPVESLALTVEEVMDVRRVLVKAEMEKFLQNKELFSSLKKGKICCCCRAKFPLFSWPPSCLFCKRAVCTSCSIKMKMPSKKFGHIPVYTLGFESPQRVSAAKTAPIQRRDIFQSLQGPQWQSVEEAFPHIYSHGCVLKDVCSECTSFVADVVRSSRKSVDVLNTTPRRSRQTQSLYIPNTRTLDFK

[12] = biological target: MyoVa-GTD (human, aa 1461-1853) (human) (UniProt Q9Y4I1); test: crystal structure; hanging drops, 17°C; MyoVa-GTD with Rab11a 1:1 and 2 mM beryllium fluoride; MyoVa-GTD with Spir-2-401-427 peptide 1:3; both purified
[13] = biological target: MyoVa-GTD (human, aa 1461-1853) (human) (UniProt Q9Y4I1); test: as above; remark: listed apart in the source

Molecule: His6-Rab11a-Q70L-1-173 (from UniProt P62491 1-173) (domain or fragment)
binding [8]: binds

Molecule: MyoVa-GTD (human, aa 1461-1853) (from UniProt Q9Y4I1 1461-1853) (domain or fragment)
binding [9]: binds | binding [8]: no binding (tested: 5 mg/ml) | binding [10]: binds | binding [11]: binds

B1: His6-mCherry-Spir-2-linker (domain or fragment, human, UniProt Q8WWL2 361-519, looked up)
chain: GEGWAARGFGSLPCILNACSGDAKSTSCINLSVTDAGGSAQRPRPRVLLKAPTLAEMEEMNTSEEEESPCGEVTLKRDRSFSEHDLAQLRSEVASGLQSATHPPGGTEPPRPRAGSAHVWRPGSRDQGTCPASVSDPSHPLLSNRGSSGDRPEASMTPD
notes: Spir-2 central linker region, human, aa 361-519; also called His-mCherry-Spir2-linker; His6-mCherry-hs-Spir2-linker; source: E. coli (Rosetta or Rosetta (DE3) pLysS; BL21(DE3)), purified (Ni-NTA, Superdex 200); not shown: His6, N-terminal, kept; mCherry, N-terminal, kept
binding [8]: binds

Further lines, results first:

binding [1]: no binding | binding [2]: binds | binding [3]: no binding | binding [4]: binds | binding [5]: no binding | binding [6]: binds | binding [7]: binds
Molecule: GFP-MyoVb-GTD (from UniProt Q9ULV0 1467-1848) (domain or fragment)

binding [12]: binds
Molecule: Rab11a (crystallised with MyoVa-GTD) (from UniProt P62491 1-177) (domain or fragment)

binding [13]: binds
Molecule: QRPRPRVLLKAPTLAEMEEMNTSEEEE [Spir-2-GTBM peptide (Spir-2-401-427)]
